Some of the results follow.
Molecular target: T1, OsWOX13 (Oryza sativa, UniProt Q5QMM3 1-267)
T1 sequence: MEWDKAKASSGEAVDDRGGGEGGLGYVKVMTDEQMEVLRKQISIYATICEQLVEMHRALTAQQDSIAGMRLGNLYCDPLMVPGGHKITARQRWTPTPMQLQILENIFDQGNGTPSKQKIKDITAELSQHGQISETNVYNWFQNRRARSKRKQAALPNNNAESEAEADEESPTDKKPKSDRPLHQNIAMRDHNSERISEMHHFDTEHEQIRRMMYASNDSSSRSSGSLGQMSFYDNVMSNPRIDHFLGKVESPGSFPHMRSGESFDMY
Assay: protein-binding microarray (RPBM); PBS, 2% BSA, 51.3 ng/ul salmon testes DNA, 50 uM zinc acetate, 200 nM TF, 25 C, 1 h; high values mean tight binding
Conditions: protein: recombinant; tags: N-terminal polyhistidine and DsRed monomer fusion (pET32a); label: CyDye5-dUTP incorporated in the synthesized complementary strand; 3' TTTTT single-stranded linker to array surface; dsDNA, one strand shown
Procedure, shortened: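 The binding signal is fluorescence intensity per array feature (arbitrary units). Readings came from an Axon 4000B scanner after a washed, 2% BSA-blocked, double-stranded custom Agilent array had been incubated for 1 h at 25 °C with 200 nM protein and 50 µM zinc acetate. The protein was a Ni–NTA-purified transcription factor fused N-terminally to polyhistidine and DsRed, expressed in E. coli BL21-CodonPlus.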

Sequence | binding signal
CAAAATCAATTTCTATAACTTGTCGAGGAAATCGATCGTTCGGAGTCACCTAGTGCAG | 5880 fluorescence intensity (a.u.)
AAACAGATAGACACAAACATTTCCAGCTTTTCAGTTCCTGCGGAGTCACCTAGTGCAG | 8890 fluorescence intensity (a.u.)
ATTGATTGTAGCCAAAATAAATTTTACTAAATTTTGCCAACGGAGTCACCTAGTGCAG | 32500 fluorescence intensity (a.u.)
AAGAAGATGATAATTGTGGTGGAGAGAAATAGGGCAATCTCGGAGTCACCTAGTGCAG | 4070 fluorescence intensity (a.u.)
CATACTATTTAAATTTAAATTATCATAAATCATATTAATTCGGAGTCACCTAGTGCAG | 21800 fluorescence intensity (a.u.)
ATAAGATTGCTGACGAGAGTTTAAACGTTGTCGAACTAAGCGGAGTCACCTAGTGCAG | 7210 fluorescence intensity (a.u.)
GCCACCATTAATTGCGAGCTGCTTCTTCTTCCCGTTCTTGCGGAGTCACCTAGTGCAG | 12000 fluorescence intensity (a.u.)
TATAGATAGACATATAGATATGGATATAGACATAGTAATACGGAGTCACCTAGTGCAG | 3770 fluorescence intensity (a.u.)
AGATTACATGATTGGAAATCTTTCACATATTTGTTTCAGGCGGAGTCACCTAGTGCAG | 51800 fluorescence intensity (a.u.)
TCTTAAGATTGAAATGTTACTACTAGAAAATGGGCTCTCTCGGAGTCACCTAGTGCAG | 9660 fluorescence intensity (a.u.)
GCCAAAATTTAACTAAAATCCCACCCTATACACTGTACGGCGGAGTCACCTAGTGCAG | 3170 fluorescence intensity (a.u.)
GCCTTGATGAGTCACTGCATGACGGGGACCTCGCCGATGGCGGAGTCACCTAGTGCAG | 6420 fluorescence intensity (a.u.)
ATAATTAAATATATTTAGATGCAGGAAATTTACAATCATCCGGAGTCACCTAGTGCAG | 24500 fluorescence intensity (a.u.)
TGTAAACTGTGACAAGTGTCTCTTTGAAAGACTAATACATCGGAGTCACCTAGTGCAG | 3270 fluorescence intensity (a.u.)
TTTGGCTAGATTGAGGTCGTTGGTGACTCTAGGATCACCGCGGAGTCACCTAGTGCAG | 6590 fluorescence intensity (a.u.)
TTCTCTAATTGGTAATTCATGATTAATCACTCCTACTTTACGGAGTCACCTAGTGCAG | 48000 fluorescence intensity (a.u.)
CCATTGTTGATTTATTAATTAGCCATTTAAGTTCCCAAATCGGAGTCACCTAGTGCAG | 30100 fluorescence intensity (a.u.)
AGTTGATTATGAGTCTTGTGACTTGTGGGGTTGTTTTGGTCGGAGTCACCTAGTGCAG | 29300 fluorescence intensity (a.u.)
ATGTGATGATTGTTAGTGGATGATGATGTGGCATCTTGTTCGGAGTCACCTAGTGCAG | 43600 fluorescence intensity (a.u.)
GCAATTAATGATTTGCCACACCCTATCAATGACATGTGGGCGGAGTCACCTAGTGCAG | 29100 fluorescence intensity (a.u.)
CCTAATTGGTGATCAATTTAACTAGTACTCGTAATAAATCCGGAGTCACCTAGTGCAG | 27300 fluorescence intensity (a.u.)

Sequence | binding signal
TTGTGATTGGTTAAGATAAATAGATTGTTGTAGATATTCGCGGAGTCACCTAGTGCAG | 36900 fluorescence intensity (a.u.)
GCGTTGACTGACATGTGGGCCCGAGGGCGGGTCGCGCGTGCGGAGTCACCTAGTGCAG | 26700 fluorescence intensity (a.u.)
TATTTATTATTTCAATTATAGACGATGTTCTGGTCGACAACGGAGTCACCTAGTGCAG | 9490 fluorescence intensity (a.u.)
GCAAATTGATAATTGAAACAGAATTCAGTCGTTTGTACAGCGGAGTCACCTAGTGCAG | 62700 fluorescence intensity (a.u.)
ATAATTAAATTTTGGTAAAGTTGAAAATAGCAACCAATTGCGGAGTCACCTAGTGCAG | 29600 fluorescence intensity (a.u.)
CAACAATCATAATCATTACACGAGACATTAAATATCAATGCGGAGTCACCTAGTGCAG | 11400 fluorescence intensity (a.u.)
ATGGTGATGGGGACAATGACTATGACAGCGGCGATGAGCTCGGAGTCACCTAGTGCAG | 5900 fluorescence intensity (a.u.)
AGTATCAATTAAACCAATAATAATCTCATCCTCATTGTTTCGGAGTCACCTAGTGCAG | 19500 fluorescence intensity (a.u.)
TTAATTATAACCAAATTACCTCAAACGAAATTGCTTCACACGGAGTCACCTAGTGCAG | 7110 fluorescence intensity (a.u.)
GAAGATTGTGTCGATGATGAAATCCGAGGGGCTGTTCGAGCGGAGTCACCTAGTGCAG | 4930 fluorescence intensity (a.u.)
ATGCTGCAATCCAATTGATAATCACATTTACCACCGGATACGGAGTCACCTAGTGCAG | 11300 fluorescence intensity (a.u.)
AGAGAGTTGCATGATTGCCACATTCAAATATTTGAGCTACCGGAGTCACCTAGTGCAG | 4980 fluorescence intensity (a.u.)
CTGTAATCTTGCTGATTGAATTCTATTTTGATGTGCAGAGCGGAGTCACCTAGTGCAG | 44800 fluorescence intensity (a.u.)
ATGATTAATGGAGTCCAAAATTGTACAGCAGCAGTAACCCCGGAGTCACCTAGTGCAG | 31300 fluorescence intensity (a.u.)
ATCAGGATGATTAGGCCCATTGTAATGACCCTACTGCTAACGGAGTCACCTAGTGCAG | 9580 fluorescence intensity (a.u.)
GCACTCCTAAATCATGGAGATTGATGGAAAACAAATCCAACGGAGTCACCTAGTGCAG | 23000 fluorescence intensity (a.u.)
TCATTGACGAGTCGATCTATGATAGCCTGATGGTGATTAGCGGAGTCACCTAGTGCAG | 12900 fluorescence intensity (a.u.)
CAGATTTCTTATTGATTGTCCTAAAAGACCTATTATCACGCGGAGTCACCTAGTGCAG | 27600 fluorescence intensity (a.u.)
ATGTTTGATTTAGATTATTAAGCAGATTATTATTGCAAACCGGAGTCACCTAGTGCAG | 27300 fluorescence intensity (a.u.)
ACTTGTTGAAAATTGATTGCTTTGTTGTTGTAGTGTTTACCGGAGTCACCTAGTGCAG | 23600 fluorescence intensity (a.u.)
TAAATAATTATATTTTAGGATAAATTTTGAATGTTAGAAGCGGAGTCACCTAGTGCAG | 23100 fluorescence intensity (a.u.)
